# Data published in PubChem BioAssay AID588501 (NMMLSC, 2011).
# The campaign covered roughly 360,000 compounds. About 420 (0.12%) were called active. The inconclusive results got no clear call from the source; some entries with a clear call stand among them for comparison. No stated cut-off is given here; in the data, active means inhibition above about 30%; inconclusive means no clear call, values can overlap the other calls; inactive means below that.
# Biological target: Lethal factor (Bacillus anthracis) (UniProt P15917)
# Experiment: anthrax lethal factor cleavage blockers – biochemical, multiplex microsphere, MLPCN library, primary screen (AID 588501); further: plate controls were buffer without enzyme for full effect and enzyme alone for no effect
# Conditions: multiplex microsphere protease cleavage assay, LF; at 10 µM; active compounds read high
row,Compound,inhibition
1,CCOC(=O)C1=C(N)Oc2cc(C)oc(=O)c2C12C(=O)N1c3c(cccc32)C(C)CC1(C)C (stereo not drawn),inactive: -0.2%
2,Cc1ccc(S(=O)(=O)N2CCN(C(=O)COC(=O)CCCOc3ccccc3)CC2)c(C)c1,inactive: -8.4%
3,CCN1CCN(c2ccc(S(=O)(=O)N3CCCCC3)cc2NC(=O)c2ccc([N+](=O)[O-])o2)CC1,inconclusive: 3.7%
4,COc1ccccc1-c1c(C)oc2c(CN3CCN(CCO)CC3)c(O)ccc2c1=O,inactive: -11%
5,CN(C)S(=O)(=O)c1ccc(N2CCCC2)c(C(=O)OCC(=O)NC2(C#N)CCCCC2)c1,inconclusive: 1.1%
6,CCN(c1ccccc1)S(=O)(=O)c1cc2c3c(c1)CCN3C(=O)CC2,inconclusive: -0.9%
7,COc1ccc2[nH]c(C)c(CCNCc3cccnc3)c2c1,inconclusive: -3.7%
8,COc1ccc(S(=O)(=O)N2CCC[C@H]2C(=O)NCc2ccc(Cl)cc2)cc1,inactive: 0.1%
9,CC(=O)Nc1cccc(C(=O)OCC(=O)N(c2ccccc2)C2CCS(=O)(=O)C2)c1 (stereo not drawn),inconclusive: 2.6%
10,O=C(Cn1cc(S(=O)(=O)Cc2cccc(F)c2)c2ccccc21)N1CCOCC1,inconclusive: 2.6%
11,c1ccc(N2CC3CCc4ccccc4C3=N2)cc1 (stereo not drawn),inconclusive: -5.2%
12,O=C(NC1CCCc2ccccc21)C1CCCC1 (stereo not drawn),active: 32.6%
13,CN(C)C(=O)CSc1nnc(CCCCCNC(=O)OC(C)(C)C)o1,inconclusive: -28.2%
14,COc1ccc(CNC(=O)CN(C(=O)CCC(=O)Nc2ccccn2)c2cc(C)ccc2C)cc1,active: 31.6%
15,CC(=O)c1c(C)[nH]c(C(=O)OCc2csc(CC(=O)Nc3ccccc3C)n2)c1C,inactive: -5.6%
16,CC(=O)Nc1nonc1NC(=O)c1ccc(C(C)(C)C)cc1,inconclusive: -15.3%
17,CCN(CC)c1ccc(N=Cc2c(O)n(CCC3=CCCCC3)c(=O)[nH]c2=O)cc1,inconclusive: 8.9%
18,CCNc1nc(NC(C)(C)C)nc(N(C#N)CC)n1,inconclusive: -7.2%
19,CCOc1ccc(N(CC(=O)NC(C)(C)C)C(=O)c2ccco2)cc1,inconclusive: 8.1%
20,C/C(=N\N1CCN(Cc2ccc(Cl)cc2)CC1)c1ccc([N+](=O)[O-])cc1,inconclusive: 10.3%
21,COC(=O)Cc1ccc2oc(-c3cccnc3)nc2c1,inactive: -2.6%
22,CC/C(=N\NC(=O)Nc1ccccc1)c1c(O)n(Cc2ccccc2)c(=O)[nH]c1=O,inconclusive: -20.8%

row,Compound,inhibition
1,CN(C)c1ccc(/C=C/C(=O)c2cccc(Br)c2)cc1,active: 34.7%
2,CCOC(=O)c1c(N2C(=O)Nc3ccccc3N2O)n[nH]c1-c1cccc(OC)c1,inactive: -0.4%
3,CC1(C(=O)Nc2cccc3cccnc23)CCN1Cc1cccc2c1OCO2 (stereo not drawn),inactive: -2.6%
4,CN1C/C(=C\c2ccc(N3CCOCC3)cc2)C(=O)/C(=C/c2ccc(N3CCOCC3)cc2)C1,active: 32.8%
5,O=C(C1CCN(S(=O)(=O)c2ccccc2)CC1)N1CCOCC1,inactive: -1.8%
6,Cc1cc(N2CCN(C)CC2)nc2ccc(NC(=O)CCC(=O)NCCC(C)C)cc12,inactive: -0.8%
7,CCOC(=O)N1CCN(S(=O)(=O)c2ccc(F)c(C(=O)Nc3cccc(Cl)c3C)c2)CC1,inactive: -4.1%
8,N#CC1=C(N)N(c2ccccc2)C2=C(C(=O)CCC2)C1c1cccs1 (stereo not drawn),inconclusive: -1.2%
9,O=C(O)c1ccc(/C=N/n2cc(-c3ccccc3)[nH]c2=S)cc1,inactive: 1.8%
10,Fc1cccc(Cn2ccc(-c3ccc4c(c3)OCO4)n2)c1,inconclusive: 1.9%
11,CC1=C(C(=O)Nc2ccccc2)C(c2ccncc2)n2nnnc2N1 (stereo not drawn),inconclusive: -1.3%
12,Cc1ccc(OCC(O)CNS(=O)(=O)c2ccccc2C(=O)N2CCCCC2)cc1 (stereo not drawn),inconclusive: -22.3%
13,Cc1cccnc1NC(=O)CCCNC(=O)c1ccc(Cl)cc1,inconclusive: -1.8%
14,O=c1ccc(-c2ccc(S(=O)(=O)NCC3CCN(Cc4ccccc4F)CC3)s2)n[nH]1,inconclusive: 7.4%
15,Cc1cc(C(=O)N/N=C/c2ccc(-c3cccc(Cl)c3)o2)n[nH]1,inconclusive: 2.2%
16,O=Cc1ccc(O)c(O)c1,inactive: -14.4%
17,O=C(Cn1cnc2ccccc21)Nc1ccc2c(c1)OCCCO2,inactive: 0.7%
18,O=C(c1ccc(S(=O)(=O)N2CCOCC2)cc1)N1CCN(c2ccccc2)CC1,inconclusive: 2.8%
19,COc1ccc(C(=O)c2sc(Nc3cccc(OC)c3)c(C(=O)Nc3cccc(C)c3C)c2N)cc1,inconclusive: -29.3%
20,Cc1ccc(C(CC(=O)N2CCCCC2)c2ccccc2)c(O)c1C (stereo not drawn),active: 69.1%
21,Cc1ccc(C#N)c(SCc2ccccc2F)n1,inconclusive: 5.8%
22,Cc1cc2ccccc2n1CCNC(=O)C1CC1,active: 44.4%

row,Compound,inhibition
1,Brc1ccc(-c2c[n+]3c(n2-c2ccccc2)SCC3)cc1,inconclusive: -5.8%
2,O=c1cc(-c2cccnc2)oc2c1ccc1ccccc12,inconclusive: -17.9%
3,CC1CCN(c2cc(N)c(Cl)cc2[N+](=O)[O-])CC1,inactive: -0.9%
4,COc1cccc(-c2nc(CSCC(=O)N3CCc4ccccc43)c(C)o2)c1,inconclusive: -33.4%
5,COc1ccc(C(=O)c2oc3ccccc3c2NC(C)=O)cc1,inactive: 0.1%
6,O=C(OCc1ccccc1Cl)C1CC(=O)N(Cc2ccco2)C1 (stereo not drawn),inconclusive: 2%
7,CCN(CC(=O)Nc1ccc(C#N)c(Cl)c1)CC(=O)NC1CCS(=O)(=O)C1 (stereo not drawn),inconclusive: -1.2%
8,CC(=C/c1ccco1)/C=N/NC(=O)c1ccncc1,inconclusive: -23%
9,C=CCn1c(=NC(=O)c2ccc(S(=O)(=O)N3CCCc4ccccc43)cc2)sc2cc(S(N)(=O)=O)ccc21,active: 37.2%
10,CC(=O)N1CC2(NC(=O)c3ccccc3N2)c2ccccc21 (stereo not drawn),inactive: 1.7%
11,S=C(Nc1ccccc1)Nc1nccs1,inactive: 7.1%
12,CC(=O)Nc1ccc(NC2=Nc3ccccc3N3C2=Nc2c(c(C)nn2-c2ccccc2)C3c2ccccc2)cc1 (stereo not drawn),active: 68.2%
13,O=C(CSc1ccc2c(c1)OCCO2)Nc1ncccc1O,inconclusive: -4%
14,CC1=CC(C)[C@H](/C=N/n2c(=O)[nH]c3c([nH]c4ccc(C)cc43)c2=O)C(C)C1 (stereo partly drawn),inactive: -1.9%
15,COc1ccc(NS(=O)(=O)c2ccc(C)c(C(=O)N3CCC3)c2)cc1,inconclusive: 3.5%
16,Cc1nc(N2CCN(S(=O)(=O)c3ccccc3)CC2)c2cc(-c3ccccc3)sc2n1,inconclusive: 5.3%
17,CSc1ccccc1NC(=O)Cn1c(-c2cscn2)nc2ccccc21,inconclusive: 13.8%
18,Cc1ccc(S(=O)(=O)N2CCCC2C(=O)O)cc1 (stereo not drawn),inactive: 0.8%
19,Cc1ccc(NC(=O)C2(N(CC(C)C)C(=O)Cn3nnnc3N)CCCCC2)cc1,inconclusive: -22.6%
20,Cc1noc(C)c1CSCC(=O)Nc1ccccc1N1CCCCC1,inconclusive: 0.2%
21,Cc1ccc(NS(=O)(=O)c2cccc(C(=O)NCC3CCCO3)c2)cc1 (stereo not drawn),inconclusive: -2%
22,Cc1nc(SCC(=O)NC2CCS(=O)(=O)C2)c(C#N)c(C)c1C (stereo not drawn),inconclusive: 0.3%

row,Compound,inhibition
1,CCCn1nc(C(=O)NNC(=O)Cc2ccc(S(=O)(=O)N3CCOCC3)s2)c2ccccc2c1=O,inconclusive: 13.2%
2,Cc1cccc(/C=C2\Sc3ccc(C(=O)N4CCC(C)CC4)cc3N(C)C2=O)c1,inactive: -2.5%
3,O=P(c1ccccc1)(c1ccccc1)C(c1ccccn1)P(=O)(c1ccccc1)c1ccccc1,inconclusive: 6.4%
4,CCOc1ccccc1NS(=O)(=O)N(C)C,inconclusive: -8.9%
5,Clc1ccc(CSc2snnc2-c2ccccc2)c(Cl)c1,inconclusive: -6.9%
6,COc1ccccc1Cc1noc(COc2cccc(C)c2C)n1,inactive: -1.2%
7,C[C@H](NC(=O)c1ccco1)C(=O)NCc1cccs1,inconclusive: 1.5%
8,O=C1N2CN(C(c3ccccc3)c3ccccc3)CN=C2SC1(CO)CO,inactive: -8.9%
9,Cc1ccccc1NC(=O)CN(C)S(=O)(=O)c1ccc(-c2ccc(=O)[nH]n2)s1,inactive: -2%
10,CNS(=O)(=O)c1cccc(C(=O)OCC(=O)c2ccc(S(=O)(=O)N3CCCCC3)cc2)c1,inconclusive: -0.5%
11,O=C(NCCC1CCCCN1S(=O)(=O)c1ccc(F)cc1)C(=O)NCc1cccnc1 (stereo not drawn),inconclusive: 12.5%
12,N=c1oc2ccc3ccccc3c2cc1-c1nc(-c2ccccc2)cs1,active: 32%
13,COC(=O)c1c(C(=O)OC)c(-c2ccc(Cl)c(Cl)c2)n2c1CCC2,inactive: -6.3%
14,ClN=C1C=CC=CC1=NCl,inactive: -3.4%
15,Cc1ccc(S(=O)(=O)/C(C#N)=C/c2c(N3CCCCC3)nc3ccccn3c2=O)cc1,inconclusive: -2%
16,O=C(CCNC(=O)c1ccccc1Cl)NCC1COc2ccccc2O1 (stereo not drawn),inconclusive: 0.2%
17,Cc1ccc(NC(=O)CCc2c(C)nn(-c3ccc(N4CCOCC4)nn3)c2C)c(C)c1,inconclusive: 9.1%
18,CC(=O)Nc1sc(C)c(C)c1C(=O)OCC(=O)NCc1ccccc1,inconclusive: -7.7%
19,Cn1c(O)c(C2=c3ccccc3=NC2=O)sc1=Nc1ccc(Cl)cc1,inactive: 0.3%
20,O=C(C1CC(=O)N(c2ccc3c(c2)OCCO3)C1)N1CCN(Cc2ccccc2)CC1 (stereo not drawn),inconclusive: -6.1%
21,O=C1CC(N2C(=O)/C(=C/C=C/c3ccccc3)SC2=S)C(=O)N1c1ccccc1 (stereo not drawn),active: 34.8%
22,CCN(CC(=O)NCc1ccc(Cl)cc1)C(=O)CCC(=O)c1ccc(F)cc1,inconclusive: -4.4%
